Article PMC6919601, “Identification of Plasmodium dipeptidyl aminopeptidase allosteric inhibitors by high throughput screening” (PLoS ONE, 2019)
The whole screen tested about 110,000 compounds, of which about 230 (0.21%) showed an effect of 50% or more. Some of the results follow.

The molecules below were run against DPAP1 (Plasmodium falciparum, UniProt Q8IIJ9) (assay: primary screen, percent inhibition; read by cleavage of a fluorogenic dipeptide substrate; higher = more effect of the substance).
DPAP1, sequence (Q8IIJ9 whole entry, looked up): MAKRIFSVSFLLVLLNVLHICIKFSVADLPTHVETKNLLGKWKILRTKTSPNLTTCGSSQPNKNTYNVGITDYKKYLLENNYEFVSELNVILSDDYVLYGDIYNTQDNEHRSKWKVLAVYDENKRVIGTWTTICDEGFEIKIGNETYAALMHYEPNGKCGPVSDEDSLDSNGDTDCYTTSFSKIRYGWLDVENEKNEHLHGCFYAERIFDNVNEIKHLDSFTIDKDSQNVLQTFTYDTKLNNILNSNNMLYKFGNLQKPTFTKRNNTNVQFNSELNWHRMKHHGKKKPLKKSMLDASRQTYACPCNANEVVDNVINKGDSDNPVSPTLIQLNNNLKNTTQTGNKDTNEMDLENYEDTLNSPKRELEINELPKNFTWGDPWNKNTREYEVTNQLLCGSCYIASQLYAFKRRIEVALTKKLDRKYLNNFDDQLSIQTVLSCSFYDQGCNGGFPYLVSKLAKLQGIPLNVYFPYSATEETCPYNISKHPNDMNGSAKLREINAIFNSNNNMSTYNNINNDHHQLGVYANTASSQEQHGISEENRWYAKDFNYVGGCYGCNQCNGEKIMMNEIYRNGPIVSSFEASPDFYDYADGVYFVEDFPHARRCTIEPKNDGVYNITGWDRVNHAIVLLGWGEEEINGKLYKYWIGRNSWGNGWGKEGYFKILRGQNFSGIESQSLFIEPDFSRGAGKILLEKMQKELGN
Set-up: species or system P. falciparum D10 trophozoite lysates; single well
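Also: 30 min substrate incubation versus DMSO and 10 µM JCP410 controls.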

Compared with `CCOC(=O)C1=C(C)N=C(C)/C(=C(/O)OCC)C1c1ccc(Cl)c(Cl)c1` (centres unmarked), `CCO/C(O)=C1\C(C)=NC(=S)NC1c1cc(OC)ccc1OC` (centres unmarked) is higher in “% Inhibition @ 10 uM” value: -1.85% for the first, 1.54% for the second.

Going from `Cc1ccc2c(c1)c(-c1ccccc1)c(-c1ccccc1)n2CC(O)CN1CCOCC1` (centres unmarked) to `O=c1c(NCc2ccccc2)c(-c2ccccc2)c1=O`, the “% Inhibition @ 10 uM” value falls from -2.91% to -4.99%.

First: CC1=C(C(=O)NC(C)c2ccc3c(c2)OCCO3)C2(CCCCC2)OC1=O (centres unmarked)
Second: CC(C(=O)NCC1(c2ccccc2)CCCC1)N1CCCCC1 (centres unmarked)
The “% Inhibition @ 10 uM” value of the first is higher: 1.55% for the first, 0.587% for the second.

Compared with `O=C(Nc1sc2c(c1C(=O)O)CCCCC2)c1ccccc1`, `Cc1ccc(/C=C(\NC(=O)c2ccccc2)C(=O)NCC2CCCCC2)o1` is lower in “% Inhibition @ 10 uM” value: -0.949% for the first, -4.48% for the second.

Compared with `Cc1ccc(NC(=O)Cn2c(-c3nonc3N)nc3ccccc32)cc1Br`, `O=C(CCS(=O)(=O)c1cccc2nonc12)NCCc1ccccc1Cl` is higher in “% Inhibition @ 10 uM” value: -4.52% for the first, 5.85% for the second.

Going from `Cn1ncc2c(NCCN3CCOCC3)ncnc21` to `Cc1ccc(-n2ncc3c(NCc4cccnc4)ncnc32)cc1Cl`, the “% Inhibition @ 10 uM” value falls from 1.09% to -1.62%.

Compared with `COc1ccc2c(C)nc(N=C(N)N)nc2c1`, `COc1ccc(C2CC(=O)C(/C=N/c3cc(Cl)ccc3O)=C(O)C2)cc1` (centres unmarked) is lower in “% Inhibition @ 10 uM” value: 5.55% for the first, -4.41% for the second.

Going from `COc1cc(NC(=O)c2cc(OC)c(OC)c(OC)c2)ccc1NC(=O)c1cc2ccccc2o1` to `COc1cc(OC)cc(C(=O)Nc2cccc(-c3nc4ncccc4o3)c2)c1`, the “% Inhibition @ 10 uM” value rises from 0.812% to 6.69%.

Compared with `CC(=O)Nc1ccc(/C=C/C(=O)c2ccncc2)cc1`, `CC(=O)Nc1ccc(NC(=O)c2ccccc2C)cc1` is higher in “% Inhibition @ 10 uM” value: -4.3% for the first, 1.62% for the second.

Compared with `O=C1N/C(=C/c2ccc(Cl)s2)C(=O)N1Cc1ccccc1`, `O=S(=O)(c1ccc(Cl)c(C(F)(F)F)c1)N1CCN(Cc2ccccc2)CC1` is higher in “% Inhibition @ 10 uM” value: -4.6% for the first, 7.37% for the second.

First: Cc1cccn2c(=O)c3cc(C(=O)N4CCOCC4)c(=N)n(Cc4cccnc4)c3nc12
Second: CNC(=O)c1cc2c(=O)n3cc(C)ccc3nc2n(CCCOC)c1=N
The “% Inhibition @ 10 uM” value of the first is higher: 0.279% for the first, -1.47% for the second.

Compared with `CCCc1cc(C(=O)NC(C)c2ccccc2)no1` (centres unmarked), `Cc1cc(CO)c(C(=O)NCc2ccccc2)c(S)n1` is lower in “% Inhibition @ 10 uM” value: -0.591% for the first, -1.85% for the second.

First: O=C(c1ccc2nc(N3CCCCC3)sc2c1)N1CCN(c2ncccn2)CC1
Second: CCOC(=O)c1c(C)[nH]c(C)c1S(=O)(=O)NCC(=O)N1CCN(c2ncccn2)CC1
The “% Inhibition @ 10 uM” value of the first is higher: 2.65% for the first, -4.33% for the second.

First: Cc1ccc(CN(C(=O)c2ccc(Cl)cc2)C2CCS(=O)(=O)C2)o1 (centres unmarked)
Second: O=C(NCc1ccc(Cl)cc1)C(=O)NCc1ccco1
The “% Inhibition @ 10 uM” value of the first is higher: 2.19% for the first, -3.4% for the second.

Going from `Cc1ccc(C(CC(=O)O)Nc2nc(NCCO)nc(N3CCOCC3)n2)cc1` (centres unmarked) to `CCC(C)Oc1ccc(/C=C2\SC(=O)N(CC(=O)N3CCOCC3)C2=O)cc1` (centres unmarked), the “% Inhibition @ 10 uM” value rises from 2.7% to 4.61%.

Going from `CSc1nc2c(c(=O)n1-c1ccc(C)cc1)C1(CCCC1)Cc1ccccc1-2` to `CN1C(=O)c2ccccc2C(C(=O)NCCN2CCc3ccccc3C2)C1c1cccs1` (centres unmarked), the “% Inhibition @ 10 uM” value rises from -1.59% to -0.0401%.

First: CCS(=O)(=O)c1nc(S(=O)(=O)c2ccc(Cl)cc2)c(N2CCC3(CC2)OCCO3)s1
Second: O=S(=O)(NC1CCCCC1N1CCNCC1)c1ccc(Cl)cc1 (centres unmarked)
The “% Inhibition @ 10 uM” value of the first is lower: -0.522% for the first, 1% for the second.

Going from `COc1ccccc1-c1c(C)nn2c(SCC(=O)NC(C)c3ccccc3)cc(C)nc12` (centres unmarked) to `O=C(CSc1nnnn1-c1ccccc1)NCc1ccccc1`, the “% Inhibition @ 10 uM” value falls from 0.0198% to -0.467%.

Going from `CC1CN(C(=O)/C(=C/c2ccccc2)NC(=O)c2ccccc2)CC(C)O1` (centres unmarked) to `CC1CCCC(NC(=O)c2ccccc2C(=O)O)C1C` (centres unmarked), the “% Inhibition @ 10 uM” value rises from -2.64% to 10.2%.

Going from `Cc1ccnc(NS(=O)(=O)c2ccc(F)c(C)c2)c1` to `O=S(=O)(Nc1ccccn1)c1c(Cl)cccc1Cl`, the “% Inhibition @ 10 uM” value falls from 1.72% to 0.968%.

Compared with `CCC1CCCCN1C(=O)Cn1c(SCc2ccc(OC)cc2)nc2ccncc21` (centres unmarked), `COc1ccc(C(=O)CSc2ccccn2)cc1` is higher in “% Inhibition @ 10 uM” value: -6.01% for the first, 1.13% for the second.

First: Cc1coc2c1c(C)cc1oc(=O)c(CC(=O)N3CCOCC3)c(C)c12
Second: Cc1ccccc1OCC(=O)Nc1ccc(S(=O)(=O)N2CCOCC2)cc1
The “% Inhibition @ 10 uM” value of the first is higher: 0.685% for the first, -1.51% for the second.

Compared with `COc1cc(CN2CCN(c3ccccc3Cl)CC2)cc2c1OCO2`, `COc1cccc(C(=O)Nc2ccc(N3CCN(Cc4ccccc4)CC3)cc2)c1` is lower in “% Inhibition @ 10 uM” value: 2.26% for the first, -1.65% for the second.

Going from `Oc1cc(-c2ccccc2)nc2nc(-c3ccco3)nn12` to `OCCn1c(-c2cccs2)cn2c3ccccc3nc12`, the “% Inhibition @ 10 uM” value falls from 2.62% to -1.96%.

First: COC(=O)c1c(-c2ccc(C(C)(C)C)cc2)csc1NC(=O)CCC(=O)O
Second: COc1ccc(CNC(=O)CNS(=O)(=O)c2cccs2)cc1
The “% Inhibition @ 10 uM” value of the first is higher: 42.4% for the first, -0.503% for the second.

Going from `CCOc1nc2c(c(=O)n(C)c(=O)n2C)n1Cc1ccc(Cl)cc1Cl` to `C=CCSc1nc2c(c(=O)[nH]c(=O)n2C)n1Cc1cccc(Br)c1`, the “% Inhibition @ 10 uM” value rises from 0.279% to 2.51%.

First: NCCC1CCCCC(=O)N1 (centres unmarked)
Second: O=C1NC(=S)NC(=O)C1C1CCCCC1
The “% Inhibition @ 10 uM” value of the first is higher: -2.7% for the first, -8.76% for the second.

Compared with `Nc1nc2n(c1C(=O)c1ccccc1)CCC2`, `CN1C(=O)S/C(=C/c2cccn2-c2cccc(C(=O)O)c2)C1=O` is higher in “% Inhibition @ 10 uM” value: -1.05% for the first, 4.06% for the second.

Compared with `CC(=O)N(C)c1ccc(NC(=O)COc2ccccc2Cl)cc1`, `CCOCC(=O)Nc1ccc(N(CC)CC)cc1` is higher in “% Inhibition @ 10 uM” value: -5.83% for the first, -4.15% for the second.

Compared with `Cc1ccc(O)c(CCc2ccc(O)cc2)n1`, `Cc1ccc(-c2ccc(=O)n(CCC(=O)NCCc3ccc(Cl)cc3)n2)cc1` is lower in “% Inhibition @ 10 uM” value: 3.78% for the first, 3.24% for the second.

Compared with `COCCNC(=O)C1CCN(c2nc3c(C)cc(C)cc3s2)CC1`, `NC(=O)C1CCN(C(=O)COCc2cc(-c3ccc4c(c3)OCO4)on2)CC1` is lower in “% Inhibition @ 10 uM” value: 3.4% for the first, -4.1% for the second.

Compared with `CCOc1ccc(NC(=O)CN(c2cc(C)ccc2OC)S(C)(=O)=O)cc1`, `O=C(COc1ccc(Br)cc1)Nc1ccc(S(=O)(=O)N2CCCCCC2)cc1` is lower in “% Inhibition @ 10 uM” value: 7.38% for the first, 0.472% for the second.

Compared with `COc1cccc(C2CC(=O)NC3=C2C(=O)CC(c2ccccc2Cl)C3)c1OC` (centres unmarked), `COc1cccc(C2NC(=O)NC(C)=C2C(=O)Nc2ccccc2Cl)c1` (centres unmarked) is higher in “% Inhibition @ 10 uM” value: -2.87% for the first, 3.44% for the second.

Going from `O=C(CSc1nc2ccsc2c(=O)n1Cc1ccc2c(c1)OCO2)NCCC1=CCCCC1` to `Cc1ccc(CCN2CC(C(=O)NCCCN3CCCC3=O)CC2=O)cc1` (centres unmarked), the “% Inhibition @ 10 uM” value falls from 29.1% to 1.62%.

First: O=C1c2[nH]nc(-c3ccccc3O)c2C(c2ccc(OCc3ccccc3)cc2)N1CCO (centres unmarked)
Second: Clc1ccc(OCc2nc3c4cnn(Cc5ccccc5)c4ncn3n2)cc1
The “% Inhibition @ 10 uM” value of the first is higher: -1.35% for the first, -3.96% for the second.

Compared with `COc1ccc(Br)cc1-c1noc(C(F)(F)F)n1`, `COc1cc(Br)c(C(C)NC(=O)c2ccc(C)cc2)cc1OC` (centres unmarked) is lower in “% Inhibition @ 10 uM” value: 2.18% for the first, 0.13% for the second.

Going from `CN(CCc1ccccn1)Cc1ccc(Cl)c(Cl)c1` to `Cc1ccc2c(CNCc3ccccc3Cl)c(C(=O)O)[nH]c2c1`, the “% Inhibition @ 10 uM” value falls from 0.827% to -7.56%.

Compared with `CCCCCn1c(C(C)O)nc2ccccc21` (centres unmarked), `CCOCCCNC(=O)c1cn(C)c(=O)c2c1c1ccccc1n2C` is higher in “% Inhibition @ 10 uM” value: -4.76% for the first, 12.8% for the second.

First: OC1CCCN(Cc2ccc(F)c(F)c2)C1 (centres unmarked)
Second: OC1CCN(Cc2cccnc2)CC1
The “% Inhibition @ 10 uM” value of the first is higher: 5.42% for the first, -1.07% for the second.

Going from `COc1ccc(C2=NN(CC(=O)NCCN(Cc3ccccc3)C(C)C)C(=O)CC2)cc1` to `CCc1ccc(NC2=C(Cl)C(=O)N(c3ccc(OC)cc3)C2=O)cc1`, the “% Inhibition @ 10 uM” value falls from -3.58% to -6.59%.

Going from `CCN(CC)S(=O)(=O)c1ccc(Cl)c(C(N)=O)c1` to `O=C(Nc1cccc(F)c1)C1CCN(S(=O)(=O)c2cc(Cl)ccc2Cl)CC1`, the “% Inhibition @ 10 uM” value falls from 6.5% to 4.11%.

First: CCOC(=O)/C(C#N)=C(\C)CC(C)C
Second: CCOC(=O)c1c(C)[nH]c(C)c1S(=O)(=O)NCCCc1ccco1
The “% Inhibition @ 10 uM” value of the first is higher: 1.33% for the first, -1.23% for the second.

First: CCOc1ccc2nc(NC(=O)c3ccc(Br)o3)sc2c1
Second: Cc1cccc(NC(=O)c2cncc(Br)c2)c1C
The “% Inhibition @ 10 uM” value of the first is higher: 2.82% for the first, -0.884% for the second.

Going from `C=CCOC(=O)C1=C(C)N=C2CCCC(O)=C2C1c1cccc(F)c1` (centres unmarked) to `Cc1cccc(C(=O)Nc2cc(Cl)c(O)c(Cl)c2)c1`, the “% Inhibition @ 10 uM” value falls from 3.82% to 3.53%.

Compared with `C=CCn1c(COc2cccc3cccnc23)nnc1SCC(=O)O`, `Cc1cccc(NC(=O)CCc2c(C)nc3ncnn3c2C)n1` is lower in “% Inhibition @ 10 uM” value: 1.15% for the first, -0.465% for the second.

First: COc1cc(S(=O)(=O)Nc2cccc(C)c2)ccc1N/C=C1\C(=O)N(C)C(=O)C(C#N)=C1C
Second: COc1cc2c(cc1OC)C(c1ccc(C)cc1)NC(=O)C2 (centres unmarked)
The “% Inhibition @ 10 uM” value of the first is lower: -4.4% for the first, -1.37% for the second.

First: Cc1cccnc1NC(=O)c1c(F)c(F)c(F)c(C(=O)Nc2ncccc2C)c1F
Second: O=C(Nc1c(C(=O)N2CCN(c3ccccn3)CC2)cnn1-c1ccccc1Cl)c1ccco1
The “% Inhibition @ 10 uM” value of the first is lower: -3.5% for the first, 5.15% for the second.

Going from `CCC(C(=O)NCCCN(CC)CC)n1nc(C)n2c(cc3occc32)c1=O` (centres unmarked) to `O=C1c2ccccc2C(=O)N1CCc1nc(CO)n[nH]1`, the “% Inhibition @ 10 uM” value rises from -5.63% to 14.4%.

Compared with `COc1cc(OC)c(C2C=C(c3ccc(Cl)cc3)Nc3ncnn32)cc1OC` (centres unmarked), `CCOC(=O)c1ccc(-c2ccc(/C=C(\C#N)c3nc4ccccc4[nH]3)o2)cc1` is higher in “% Inhibition @ 10 uM” value: 3.32% for the first, 5.75% for the second.

Going from `c1ccc(C(CN2CCC(N3CCCCC3)CC2)c2ccccc2)cc1` to `O=C(c1cccs1)N1N=C(c2ccc(Br)cc2)CC1c1ccco1` (centres unmarked), the “% Inhibition @ 10 uM” value falls from -2.02% to -2.73%.

For `N#Cc1c(C(F)(F)F)cc(-c2ccncc2)nc1SCC(=O)Nc1nccs1`, the “% Inhibition @ 10 uM” value was 3.99%.
